Reference: patent publication US20230272055A1, “ANTI-MUTANT CALRETICULIN (CALR) ANTIBODIES AND USES THEREOF” (Incyte Corporation, priority 2021, published 2023)

Assays:
[1] = biological target: T1, recombinant MBP-mutCALR Type 1 fusion protein (Homo sapiens, UniProt P27797, DEL40-40); experiment: Biacore SPR binding kinetics, Experiment 1; conditions: Biacore 8K, 25° C., 1:1 binding model
T1 construct: His6 (N); purchased Cepter (cepterbiopartners.com), custom made
Method: The amino acid sequence of recombinant MBP-mutCALR Type 1 fusion protein used in Experiments 1 and 2 is:
Experiment 1: Recombinant MBP-mutCALR Type 1 fusion protein was custom made at Cepter (cepterbiopartners.com). Data for the interaction of antibodies with recombinant MBP-mutCALR Type 1 fusion protein were collected at 25° C. on a Biacore 8K instrument (Cytiva, Marlborough, Mass.), and all reagents were obtained from Cytiva unless otherwise specified. The experiments were conducted using Tris-buffered saline (pH 7.2), 0.005% Surfactant P20, 1 mM CaCl2) as running buffer. To prepare the capture surfaces, anti-human IgG (Fc) antibodies (Product #29234600) was amine-coupled onto a CM4 chip (Product #BR100534) under standard conditions using an Amine Coupling Kit (Product #BR100050). Anti-mutCALR antibodies were captured onto the chip surface by injecting over flow cell 2 only at a flow rate of 30 μL/min for 30 seconds. […] The kinetics parameters were obtained by applying 1:1 binding model to fit the data from multiple-cycle injection experiments using Biacore Insight Evaluation software.

[2] = system: Ba/F3 cells transfected with MPL and mutCALR Type 1; experiment: Inhibition of cell proliferation, CellTiter-Glo 72 hours, mutCALR Type 1; assay type: cell-based; conditions: Ba/F3 engineered cells, high-throughput primary screening
Method: To test the ability of anti-mutCALR antibodies to inhibit cell proliferation, engineered Ba/F3 cells transfected with MPL and mutCALR Type 1 were plated at 5,000 cells per well in RPMI 1640+2% FBS, antibodies added, incubated for 72 hours, and followed by assessment of cell viability using the CellTiter-Glo Luminescent Cell Viability Assay (Promega, Madison, Wis.) and Top Count (Perkin Elmer, Boston, Mass.) or Pherastar (BMG Labtech, Ortenberg, Germany) for luminescence quantification. Anti-mutCALR antibodies inhibit mutCALR-induced oncogenic cell proliferation in a dose-dependent manner in both the Ba/F3 engineered cells (FIG. 2).
To test the ability of anti-mutCALR antibodies to inhibit oncogenic cell proliferation triggered by the Type 1 and Type 2 CALR mutations, Ba/F3 cells (DSMZ) were engineered to express MPL+mutCALR Type 1 (52 bp deletion, SEQ ID NO:320) or MPL+mutCALR Type 2 (5 bp insertion; SEQ ID NO:321). Cells were plated at 5,000 cells per well in RPMI 1640+2% FBS, antibodies added, incubated for 72 hours, and followed by assessment of cell viability using the CellTiter-Glo Luminescent Cell Viability Assay (Promega, Madison, Wis.) and Top Count (Perkin Elmer, Boston, Mass.) or Pherastar (BMG Labtech, Ortenberg, Germany) for luminescence quantification. Anti-mutant CALR antibodies show potency to inhibit mutCALR-induced oncogenic cell proliferation associated with both Type 1 and Type 2 mutations (FIG. 3).

[3] = biological target: T1, recombinant MBP-mutCALR Type 1 fusion protein; experiment: Biacore SPR binding kinetics, Experiment 2 (parental and variant antibodies); conditions: Biacore 8K, 25° C., 1:1 binding model

ka [1] [M⁻¹ s⁻¹]	kd [1] [s⁻¹]	IC50 inhibition of cell proliferation [2] [ng/mL]	ka [3] [M⁻¹ s⁻¹]	kd [3] [s⁻¹]	Molecule
3.02e+06	0.00904	4.6	–	–	9 (antibody) heavy: EVQLVQSGAEVKKPGASVKVSCKVSGYTLTELSMQWVRQAPGKGLEWMGGFDPDDGETMYAEKFQGRLTVTEDTSTDTVYMELRSLTSEDTALYFCATSPGYDFFDYWGQGTLVTVSSASTKGPSVFPLAPSSKSTSGGTAALGCLVKDYFPEPVTVSWNSGALTSGVHTFPAVLQSSGLYSLSSVVTVPSSSLGTQTYICNVNHKPSNTKVDKRV[omitted - human IgG1 Fc] light: SYVLTQPPSVSVAPGQTARIPCGGNNIGSKSVHWYQQKPGQAPVLVVYDDRDRPSGIPERFSGSNSGNTATLTINRVEAGDEADYYCQVWDSSNDLLIFGGGTKLTVLGQPKAAPSVTLFPPSSEELQANKATLVCLISDFYPGAVTVAWKADSSPVKAGVETTTPSKQSNNKYAASSYLSLTPEQWKSHRSYSCQVTHEGSTVEKTVAPTECS
–	–	9.8	1.29e+06	0.00207	128 (antibody) heavy: EVQLVQSGAEVKKPGASVKVSCKVSGYTLTELSMQWVRQAPGKGLEWMGGFDPDDAETMYAEKFQGRLTVTEDTSTDTVYMELRSLTSEDTALYFCATSPGYDFFDYWGQGTLVTVSSASTKGPSVFPLAPSSKSTSGGTAALGCLVKDYFPEPVTVSWNSGALTSGVHTFPAVLQSSGLYSLSSVVTVPSSSLGTQTYICNVNHKPSNTKVDKRV[omitted - human IgG1 Fc with changes] light: SYELTQPPSVSVAPGKTARITCGGDNIGSKSVHWYQQKPGQAPVLVVYDDSDRPSGIPERFSGSNSGNTATLTINRVEAGDEADYYCQVWDSSNDLLIFGGGTKLTVLGQPKAAPSVTLFPPSSEELQANKATLVCLISDFYPGAVTVAWKADSSPVKAGVETTTPSKQSNNKYAASSYLSLTPEQWKSHRSYSCQVTHEGSTVEKTVAPTECS
229000	0.00289	7.7	–	–	22 (antibody) heavy: EVQLVQSGAEVKKPGASVKVSCKVSGYTLTELSMQWVRQAPGKGLEWMGGFDPDDGETMYAEKFQGRLTVTEDTSTDTVYMELRSLTSEDTALYFCATSPGYDFFDYWGQGTLVTVSSASTKGPSVFPLAPSSKSTSGGTAALGCLVKDYFPEPVTVSWNSGALTSGVHTFPAVLQSSGLYSLSSVVTVPSSSLGTQTYICNVNHKPSNTKVDKRV[omitted - human IgG1 Fc] light: SYVLTQPPSVSVAPGKTARITCGGNNIGSKNVHWYQQKPGQAPVLVVYDDSDRPSGIPERFSGSNSGNTATLTINRVEAGDEADYYCQVWDSSNDLLIFGGGTKLTVLGQPKAAPSVTLFPPSSEELQANKATLVCLISDFYPGAVTVAWKADSSPVKAGVETTTPSKQSNNKYAASSYLSLTPEQWKSHRSYSCQVTHEGSTVEKTVAPTECS
1.12e+06	0.00498	13.6	–	–	20 (antibody) heavy: EVQLVQSGAEVKKPGASVKVSCKVSGYTLTELSMQWVRQAPGKGLEWMGGFDPDDGETMYAEKFQGRLTVTEDTSTDTVYMELRSLTSEDTALYFCATSPGYDFFDYWGQGTLVTVSSASTKGPSVFPLAPSSKSTSGGTAALGCLVKDYFPEPVTVSWNSGALTSGVHTFPAVLQSSGLYSLSSVVTVPSSSLGTQTYICNVNHKPSNTKVDKRV[omitted - human IgG1 Fc] light: SYVLTQPPSVSVAPGKTARITCGGNNIGSKGVHWYQQKPGQAPVLVVYDDSDRPSGIPERFSGSNSGNTATLTINRVEAGDEADYYCQVWDSSNDLLIFGGGTKLTVLGQPKAAPSVTLFPPSSEELQANKATLVCLISDFYPGAVTVAWKADSSPVKAGVETTTPSKQSNNKYAASSYLSLTPEQWKSHRSYSCQVTHEGSTVEKTVAPTECS
2.37e+06	0.00628	9	–	–	18 (antibody) heavy: EVQLVQSGAEVKKPGASVKVSCKVSGYTLTELSMQWVRQAPGKGLEWMGGFDPDDGETMYAEKFQGRLTVTEDTSTDTVYMELRSLTSEDTALYFCATSPGYDFFDYWGQGTLVTVSSASTKGPSVFPLAPSSKSTSGGTAALGCLVKDYFPEPVTVSWNSGALTSGVHTFPAVLQSSGLYSLSSVVTVPSSSLGTQTYICNVNHKPSNTKVDKRV[omitted - human IgG1 Fc] light: SYVLTQPPSVSVAPGKTARITCGGNNIGSKSVHWYQQKPGQAPVLVVYDDSDRPLGIPERFSGSNSGNTATLTINRVEAGDEADYYCQVWDSSNDLLIFGGGTKLTVLGQPKAAPSVTLFPPSSEELQANKATLVCLISDFYPGAVTVAWKADSSPVKAGVETTTPSKQSNNKYAASSYLSLTPEQWKSHRSYSCQVTHEGSTVEKTVAPTECS
2.08e+06	0.00716	9.5	–	–	3 (antibody) heavy: EVQLVQSGAEVKKPGASVKVSCKVSGYTLTELSMQWVRQAPGKGLEWMGGFDPDDGETMYAERFQGRLTVTEDTSTDTVYMELRSLTSEDTALYFCATSPGYDFFDYWGQGTLVTVSSASTKGPSVFPLAPSSKSTSGGTAALGCLVKDYFPEPVTVSWNSGALTSGVHTFPAVLQSSGLYSLSSVVTVPSSSLGTQTYICNVNHKPSNTKVDKRV[omitted - human IgG1 Fc] light: SYVLTQPPSVSVAPGQTARITCGGNNIGSKSVHWYQQKPGQAPVLVVYDDSDRPSGIPERFSGSNSGNTATLTINRVEAGDEADYYCQVWDSSNDLLIFGGGTKLTVLGQPKAAPSVTLFPPSSEELQANKATLVCLISDFYPGAVTVAWKADSSPVKAGVETTTPSKQSNNKYAASSYLSLTPEQWKSHRSYSCQVTHEGSTVEKTVAPTECS
1.38e+06	0.0196	834.5	–	–	1 (antibody) heavy: EVQLVQSGAEVKKPGASVKVSCKVSGYTLTELSMQWVRQAPGKGLEWMGGFDPDDGETMYAEKFQGRLTVTEDTSTDTVYMELRSLTSEDTALYFCATSPGYDFFDYWGQGTLVTVSSASTKGPSVFPLAPSSKSTSGGTAALGCLVKDYFPEPVTVSWNSGALTSGVHTFPAVLQSSGLYSLSSVVTVPSSSLGTQTYICNVNHKPSNTKVDKRV[omitted - human IgG1 Fc] light: SYVLTQPPSVSVAPGKTARITCGGNYIGSKSVHWYQQKPGQAPVLVVYDDGDRPSGIPARFSGSNSGNTATLTISRVEAGDEADYYCQVWDSISDHVVFGGGTKLTVLGQPKAAPSVTLFPPSSEELQANKATLVCLISDFYPGAVTVAWKADSSPVKAGVETTTPSKQSNNKYAASSYLSLTPEQWKSHRSYSCQVTHEGSTVEKTVAPTECS
785000	0.00343	6.5	–	–	23 (antibody) heavy: EVQLVQSGAEVKKPGASVKVSCKVSGYTLTELSMQWVRQAPGKGLEWMGGFDPDDGETMYAEKFQGRLTVTEDTSTDTVYMELRSLTSEDTALYFCATSPGYDFFDYWGQGTLVTVSSASTKGPSVFPLAPSSKSTSGGTAALGCLVKDYFPEPVTVSWNSGALTSGVHTFPAVLQSSGLYSLSSVVTVPSSSLGTQTYICNVNHKPSNTKVDKRV[omitted - human IgG1 Fc] light: SYVLTQPPSVSVAPGQTARITCGGNNIGIKSVHWYQQKPGQAPVLVVYDDSDRPSGIPERFSGSNSGNTATLTINRVEAGDEADYYCQVWDSSNDLLIFGGGTKLTVLGQPKAAPSVTLFPPSSEELQANKATLVCLISDFYPGAVTVAWKADSSPVKAGVETTTPSKQSNNKYAASSYLSLTPEQWKSHRSYSCQVTHEGSTVEKTVAPTECS
2.11e+06	0.00292	7.2	–	–	10 (antibody) heavy: EVQLVQSGAEVKKPGASVKVSCKVSGYTLTELSMQWVRQAPGKGLEWMGGFDPDDGETMYAEKFQGRLTVTEDTSTDTVYMELRSLTSEDTALYFCATSPGYDFFDYWGQGTLVTVSSASTKGPSVFPLAPSSKSTSGGTAALGCLVKDYFPEPVTVSWNSGALTSGVHTFPAVLQSSGLYSLSSVVTVPSSSLGTQTYICNVNHKPSNTKVDKRV[omitted - human IgG1 Fc] light: SYELTQPPSVSVAPGQTARIPCGGNNIGSEGVHWYQQKPGQAPVLVVYDDSDRPSGIPERFSGSNSGNTATLTISRVEAGDEADYYCQVWDSSNDLLIFGGGTKLTVLGQPKAAPSVTLFPPSSEELQANKATLVCLISDFYPGAVTVAWKADSSPVKAGVETTTPSKQSNNKYAASSYLSLTPEQWKSHRSYSCQVTHEGSTVEKTVAPTECS
